Screen size: about 150,000 compounds; about 540 (0.36%) showed an effect of 50% or more. This is one part of the list.

This experiment concerns Plasmodium falciparum. In words: Primary screen in NF54 nanoGlo assay, in single point, at 2uM, 72h; a lower Z score goes with more inhibition. The experiment is classed as functional, Erythrocyte. To be noted: timepoint 72 hour.
Regarding `CC(C)[C@@H]1C[C@@H](CNC(=O)NC2CCC(=O)N(C)C2)c2ccccc21` (some centres undefined), the “% Inhibition” value is -9% and the Z score is on record as 1.43.
As for `CCc1nnc2ccc(-c3noc(Cc4cc(OC)cc(OC)c4)n3)cn12`, the “% Inhibition” value was -7% and the Z score is on record as 1.13.
In the case of `COCCCN(Cc1ccco1)C[C@H](O)COC(C)(C)C`, the “% Inhibition” value turned out to be 2% and the Z score is given as -0.27.
Turning to `COc1ccc2c(c1)C(N1CCN(C(=O)c3cc(F)cc(F)c3)[C@@H](C)C1)=Nc1ccccc1O2`, the “% Inhibition” value is -5% and the Z score worked out at 0.88.
`COCCCN1C(=O)CC(CC(=O)N2CCCC(c3ccccc3C)C2)(c2ccccc2Cl)C1=O` (centres undefined): the “% Inhibition” value is listed as -2% and the Z score is reported as 0.29.
The corresponding values for `C=CCN1CCC[C@H]1C(=O)N(C)CC1(C)COC1` are 7% and -0.93.
For `CC(=O)c1cccc(NC(=O)N2C[C@H](c3nc(C)no3)C3(CCOCC3)C2)c1` the same measures were 1% and -0.13.
As to `CCO[C@H]1CN(Cc2noc(-c3ccccc3)n2)C[C@@H]1O`, the “% Inhibition” value was -4% and the Z score is recorded as 0.85.
For `Cc1c(C(=O)N2CCCC3(CCN(C)CC3)CC2)nnn1Cc1ccccc1` the same measures were -8% and 1.2.
The corresponding values for `CN(CCCn1cccn1)C(=O)[C@@H]1CCCC[C@@H]1C(=O)N1CCCC1` are -10% and 2.01.
Regarding `Cc1cc(C)c([C@@H](O)Cn2ccn3nc(-c4cccc(Br)c4)cc3c2=O)c(C)c1`, the “% Inhibition” value is -10% and the Z score is on record as 1.11.
For `COc1ccccc1CNC(=O)CC(C)(C)CC1=NS(=O)(=O)c2ccccc2N1`, the “% Inhibition” value was 11% and the Z score is recorded as -1.29.
For `CCCn1ncc([C@H]2C[C@@H](NC(C)=O)C[C@@H](c3ccc(Cl)cc3)O2)c1C` the same measures were 4% and -0.57.
For `Nc1nc2n(n1)[C@H](c1ccc(Cl)cc1)CC(=O)N2` the same measures were 35% and -3.95.
In the case of `CC(C)CN1C[C@H](C(=O)Nc2ccc(F)cc2)C[C@H](C(=O)NC2CCCC2)C1`, the “% Inhibition” value is -11% and the Z score came out at 1.29.
For `C[C@H]1CC2(CCNCC2)CN1C(=O)c1csc2ccccc12` the same measures were 2% and -0.28.
For `CC1(C)CN(C(=O)C2(c3ccc(Cl)c(Cl)c3)CCC2)CC[C@@H]1N` the same measures were -7% and 1.24.
In the case of `CCN1CN(S(=O)(=O)c2c[nH]c3ncc(Br)cc23)CC1=O`, the “% Inhibition” value was -4% and the Z score is 0.56.
For `COc1ccc(CCNC(=O)Cn2ccc3ncccc3c2=O)cc1` the same measures were -15% and 1.52.
`O=C(C[C@H]1Cc2c(n(Cc3ccccc3)c(=O)[nH]c2=O)NC1=O)Nc1ccc(Cl)c(Cl)c1`: the “% Inhibition” value was found to be 32% and the Z score is on record as -3.58.
As to `Cc1cccnc1CNC(=O)Nc1nccn(C)c1=O`, the “% Inhibition” value is -6% and the Z score amounted to 0.65.
`CCc1nccn1C[C@H](C)N1CC(Oc2ccccc2)C1`: the “% Inhibition” value is -4% and the Z score is 0.76.
For `CN(C(=O)c1cc(C(C)(C)C)cc(C(C)(C)C)c1)C(C)(C)C` the same measures were -5% and 0.84.
As for `O=C(COc1ccc(Br)cc1)Nc1ccc(S(=O)(=O)Nc2cccc(C(F)(F)F)c2)cc1NC(=O)COc1ccc(Br)cc1`, the “% Inhibition” value was 30% and the Z score is listed as -3.01.
Regarding `CNC(=O)N1CCC[C@H]1c1nc(C2CN(C(=O)c3ccc(OC)cc3OC)C2)no1`, the “% Inhibition” value is reported as 3% and the Z score is recorded as -0.37.
For `COc1ccc(Cc2c(C)nc(C)nc2N2CCN(S(=O)(=O)c3ccc(OC)cc3)CC2)cc1` the same measures were -17% and 1.57.
As to `CNCC#CCOc1ccc(C)c(C)c1`, the “% Inhibition” value was -5% and the Z score is listed as 0.56.
For `Cn1c(=O)n(Cc2cccc3cccnc23)c2ccccc21`, the “% Inhibition” value is given as -7% and the Z score stood at 0.94.
Consider `CCC(C)(C)C(=O)NC(C)C(O)c1ccc(F)c(F)c1` (centres undefined), for which the “% Inhibition” value is -13% and the Z score was found to be 1.63.
Take `C[C@H]1CN(C(=O)NCc2ccccc2Br)CCCO1`: the “% Inhibition” value is -6% and the Z score amounted to 0.92.
Turning to `CC1CN(C(=O)CCc2cccc(N(C)C)c2)CC[S+]([O-])C1` (centres undefined), the “% Inhibition” value is on record as -5% and the Z score worked out at 0.55.
Take `Cn1c(=O)[nH]c(=O)c2cc(S(=O)(=O)N[C@]3(C)CC=CCC3)cnc21`: the “% Inhibition” value was -2% and the Z score was determined as 0.33.
The corresponding values for `O=C(Nc1cc(Br)ccc1F)C(=O)NC1CCC1` are -3% and 0.51.
On to `Cc1cccc(NC(=O)Cn2ccn3nc4c(c3c2=O)CCCCC4)c1C`, for which the “% Inhibition” value is given as -12% and the Z score is recorded as 1.56.
`Fc1cc(Cl)cc(-c2nccn2CC2CCOCC2)c1`: the “% Inhibition” value is recorded as -15% and the Z score stood at 1.86.
For `CN(c1ccc(O)cc1)S(=O)(=O)c1cnn(CC2CC2)c1` the same measures were -12% and 1.94.
In the case of `Cc1c(C(=O)NCc2ccc(F)cc2)c(C)n2cnn(CC(=O)Nc3ccccc3)c(=O)c12`, the “% Inhibition” value is 6% and the Z score is -1.
`CC1(CNC(=O)N2CCC[C@]3(CCCN(Cc4ccccc4)C3)C2)COC1`: the “% Inhibition” value worked out at 11% and the Z score is recorded as -2.02.
On to `Cn1ncc2c(N3CCNC(=O)C3)nc(CCc3ccccc3)nc21`, for which the “% Inhibition” value is recorded as -15% and the Z score was determined as 1.48.
For `COc1cc(Br)ccc1[C@H](C)NCc1cncnc1` the same measures were -7% and 0.92.
For `Cc1nnc(CCNC(=O)[C@]2(C)CCCO2)s1` the same measures were 0% and 0.03.
`O=C(Nc1ccc2c(c1)OCCO2)[C@@H]1CCCCN1S(=O)(=O)c1ccc(Cl)s1`: the “% Inhibition” value is -11% and the Z score was 2.21.
The corresponding values for `Cc1nc2cc(OCc3ccccc3)ccc2n1C` are 35% and -1.06.
On to `CN(Cc1cscn1)C(=O)[C@H]1CC12CCN(Cc1cc3ccccc3o1)CC2`, for which the “% Inhibition” value was -11% and the Z score is listed as 1.47.
In the case of `COCc1nc(C)cc(N[C@H](C(=O)N2CCCC2)C(C)C)n1`, the “% Inhibition” value is -14% and the Z score amounted to 1.4.
For the compound `CC(=O)c1c(C)[nH]c(C(=O)N2CCCc3cc(C)ccc32)c1C`, the “% Inhibition” value is recorded as -10% and the Z score amounted to 0.87.
Consider `Cc1ccc(CNC(=O)NC2CN(Cc3ccccc3)CC2C)cn1` (centres undefined), for which the “% Inhibition” value is on record as -6% and the Z score amounted to 0.67.
For `O=C(Nc1ccc2c(c1)OCCCO2)c1ccco1` the same measures were 29% and -3.9.
As for `CC[C@H](NC(=O)N1CCCCCC1)c1cccc(C)n1`, the “% Inhibition” value is recorded as 3% and the Z score was -0.55.
Consider `Cc1ccc2c(n1)OCCN2CC(=O)N[C@@H](C)c1ccc(C)c(C)c1`, for which the “% Inhibition” value is -13% and the Z score is reported as 1.51.
The corresponding values for `O=C(c1ncoc1C(F)(F)F)N1CCC12COC2` are -11% and 1.75.
For `NC(=O)c1ccnc(-c2ccccc2OCc2ccccc2)c1` the same measures were -8% and 1.01.
With `CCC1c2cccn2CCN1C(=O)CC1(c2ccccc2F)CC(=O)N(C2CCCCC2)C1=O` (centres undefined), the “% Inhibition” value is given as -6% and the Z score is 1.09.
As to `CC1CN(S(=O)(=O)c2cccc(C(=O)c3cccc(S(=O)(=O)N4CC(C)OC(C)C4)c3)c2)CC(C)O1` (centres undefined), the “% Inhibition” value is -32% and the Z score was 3.77.
Turning to `Cc1cc(N2C[C@H](O)[C@@H](N3CCN(C)CC3)C2)n2nccc2n1`, the “% Inhibition” value was 1% and the Z score is -0.24.
The corresponding values for `Cc1ccc(C)c(NC(=O)N2CC[C@H](N(CCN3CCCC3)S(=O)(=O)N(C)C)C2)c1` are 26% and -2.99.
The corresponding values for `O=C(c1cnn[nH]1)N1CCOc2ccc(CO)cc2C1` are -5% and 0.69.
`Cc1nnc(NCc2ccc(N3CCCC3=O)cc2)c(C#N)c1C`: the “% Inhibition” value was -17% and the Z score is 1.54.
The corresponding values for `CC(C)(CNC(=O)Nc1ccn2ccnc2c1)C1CCOCC1` are -19% and 2.61.
The corresponding values for `CC(C)C(=O)N1CCc2nc[nH]c2[C@@H]1C1CCN(C(=O)c2cccc(C(=O)O)c2)CC1` are -6% and 0.86.
Turning to `COc1ccc(C(=O)N[C@@H](N2CCCCC2)C(Cl)(Cl)Cl)cc1`, the “% Inhibition” value is on record as -9% and the Z score stood at 1.25.
With `COc1ccc(OC)c(-c2ccnc(-n3ncc(C(=O)NCCCN4CCCC4=O)c3C)n2)c1`, the “% Inhibition” value is -10% and the Z score is recorded as 1.26.
The corresponding values for `O=C(c1cccc(-n2ccnn2)c1)N(CC(F)(F)F)C1CCC1` are 1% and -0.26.
Regarding `Cc1noc(C)c1CN(C)C(=O)COCC(F)(F)C(F)F`, the “% Inhibition” value is on record as -20% and the Z score stood at 1.73.
On to `CC(C)c1cnc(NC(=O)N2CCCn3c(cc4ccccc43)C2)s1`, for which the “% Inhibition” value amounted to 15% and the Z score is recorded as -3.25.
`CC1(C)CC2=NC(Nc3nc4ccccc4s3)=N[C@@H](c3ccccc3)C2=C(O)C1`: the “% Inhibition” value was -2% and the Z score is reported as 0.31.
For `OC[C@H]1CCCCN1Cc1cc(-c2ccncc2)no1` the same measures were 10% and -1.34.
For `CCC(NC1CCC(=O)N(C)C1)c1cccc(Cl)c1F` (centres undefined) the same measures were 6% and -0.86.
Take `COC(=O)c1cc(CN2CC[C@H](S(C)(=O)=O)C2)c(Cl)cc1O`: the “% Inhibition” value was determined as 3% and the Z score is -0.53.
Turning to `CC(C)N1CCC[C@H](c2nc(-c3ccncc3)no2)C1`, the “% Inhibition” value is -9% and the Z score was found to be 1.67.
On to `O=C(NCCC1CS(=O)(=O)C1)c1nccc2cccnc12`, for which the “% Inhibition” value is on record as -6% and the Z score is on record as 1.16.
For `Cc1cscc1NC(=O)NCc1ncc(C(C)(C)C)o1` the same measures were -1% and 0.13.
The corresponding values for `CCC[C@H](NC(=O)c1cc(-c2cccnc2)nc2ccccc12)c1cccs1` are -4% and 0.77.
For `CCOC(CN(Cc1cccc(O)c1)[C@H]1CC[C@H](O)CC1)OCC` the same measures were -3% and 0.37.
Regarding `CN(C)CCN1C[C@@H](C(=O)NCc2cccc(-c3ccccc3)c2)CC1=O`, the “% Inhibition” value was found to be 0% and the Z score is 0.05.
In the case of `CC(C)N1CC[C@H](c2nnc3n2CCN(S(=O)(=O)c2ccccc2Cl)C3)C1`, the “% Inhibition” value is 44% and the Z score is reported as -5.87.
Turning to `CC(=O)N[C@H](CC1CCC1)C(=O)NCc1n[nH]c(C(C)(C)C)n1`, the “% Inhibition” value is -9% and the Z score was determined as 1.03.
For `COc1ccccc1CC(=O)Nc1cnc(O)nc1O` the same measures were -2% and 0.29.
`CCc1ccccc1NC(=O)COc1cc(C)nc(N2CCCC2)n1`: the “% Inhibition” value was -4% and the Z score came out at 0.78.
The corresponding values for `CC(C)[C@H](NC(=O)c1c(F)cccc1F)C(=O)N1CCC1` are -12% and 2.17.
The corresponding values for `C[C@]1(F)CCCN(C(=O)CCCC#N)C1` are 5% and -0.61.
For `CCN(CC)c1nc(C(=O)NCC(C)C)nc2nc(C)cc(C)c12` the same measures were -11% and 1.8.

The record behind these values is ChEMBL document CHEMBL4888484, “Replenishing the malaria drug discovery pipeline: Screening and hit evaluation of the MMV Hit Generation Library 1 (HGL1) against asexual blood stage Plasmodium falciparum ,using a nano luciferase reporter read-out” (2022).
